Here are results for 45 compounds from article PMC4336329 (PLoS ONE, 2015).

SMILES strings stand for the structures. Hit rate of the full screen: of about 310,000 compounds, about 2,200 (0.71%) showed an effect of 50% or more. Effects have a minus sign here. Some of the results follow.

Chain of human ether-à-go-go-related gene (hERG) potassium channel (Q12809 whole entry, looked up): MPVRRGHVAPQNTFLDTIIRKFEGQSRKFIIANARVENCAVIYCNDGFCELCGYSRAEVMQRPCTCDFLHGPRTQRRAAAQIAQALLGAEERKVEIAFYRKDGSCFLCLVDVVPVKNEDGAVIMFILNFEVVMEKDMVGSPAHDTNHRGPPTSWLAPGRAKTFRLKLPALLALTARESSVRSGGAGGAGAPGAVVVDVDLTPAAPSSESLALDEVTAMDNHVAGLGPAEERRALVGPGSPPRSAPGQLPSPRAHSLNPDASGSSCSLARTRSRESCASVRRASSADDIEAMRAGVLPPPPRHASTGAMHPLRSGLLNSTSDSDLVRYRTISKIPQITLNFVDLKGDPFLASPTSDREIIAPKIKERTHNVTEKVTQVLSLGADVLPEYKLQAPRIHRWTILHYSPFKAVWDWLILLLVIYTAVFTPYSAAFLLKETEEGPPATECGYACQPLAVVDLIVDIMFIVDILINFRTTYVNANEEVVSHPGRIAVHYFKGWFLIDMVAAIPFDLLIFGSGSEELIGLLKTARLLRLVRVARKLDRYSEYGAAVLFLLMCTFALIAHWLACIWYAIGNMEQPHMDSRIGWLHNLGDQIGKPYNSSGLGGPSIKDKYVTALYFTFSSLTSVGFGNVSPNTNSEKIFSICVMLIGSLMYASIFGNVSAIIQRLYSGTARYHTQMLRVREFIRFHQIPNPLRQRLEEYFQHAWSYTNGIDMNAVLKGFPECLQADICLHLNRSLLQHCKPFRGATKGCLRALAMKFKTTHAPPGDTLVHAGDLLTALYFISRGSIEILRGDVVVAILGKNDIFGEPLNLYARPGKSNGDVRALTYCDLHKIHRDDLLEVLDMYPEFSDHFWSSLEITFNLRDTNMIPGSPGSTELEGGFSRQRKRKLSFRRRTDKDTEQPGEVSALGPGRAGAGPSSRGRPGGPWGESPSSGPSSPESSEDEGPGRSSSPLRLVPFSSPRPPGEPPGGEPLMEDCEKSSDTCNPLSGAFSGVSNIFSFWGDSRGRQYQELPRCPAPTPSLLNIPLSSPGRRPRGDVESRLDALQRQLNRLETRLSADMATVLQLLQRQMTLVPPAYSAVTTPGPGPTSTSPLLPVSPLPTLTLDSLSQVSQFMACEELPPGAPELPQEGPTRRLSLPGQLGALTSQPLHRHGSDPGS

The assay addresses human ether-à-go-go-related gene (hERG) potassium channel (human, UniProt Q12809). Put plainly: primary screen, population patch clamp on CHO cells stably expressing hERG.
Regarding `O=C(N/N=C/c1ccc([N+](=O)[O-])s1)c1cccc(Br)c1`, the “hERG current change (%, negative = inhibition) at 1uM” value stood at 8.42%.
In the case of `Cc1nn(-c2ccccc2)c(Cl)c1/C=N/O`, the “hERG current change (%, negative = inhibition) at 1uM” value came out at 4.67%.
Turning to `COc1cc(CNn2c(C)n[nH]c2=S)cc(Cl)c1OCC(=O)NC(C)(C)C`, the “hERG current change (%, negative = inhibition) at 1uM” value is given as 14.3%.
Turning to `COc1cccc(Nc2nc(N)c([N+](=O)[O-])c(N3CCOCC3)n2)c1`, the “hERG current change (%, negative = inhibition) at 1uM” value is 5.99%.
On to `CCOc1ccc(CNC(=S)NCc2ccc(OCC)cc2)cc1`, for which the “hERG current change (%, negative = inhibition) at 1uM” value is listed as 17.2%.
For the compound `Clc1ccc(-c2csc(-c3ccno3)n2)cc1`, the “hERG current change (%, negative = inhibition) at 1uM” value was found to be 15.2%.
Consider `CCN(CC(=O)Nc1c(F)cccc1F)C(=O)c1ccc(S(=O)(=O)N2CCC(C)CC2)cc1`, for which the “hERG current change (%, negative = inhibition) at 1uM” value was -0.968%.
Take `Cc1ccccc1NC(=S)NC(NC(=O)CF)C(Cl)(Cl)Cl` (stereo not drawn): the “hERG current change (%, negative = inhibition) at 1uM” value is recorded as 1.04%.
For `O=C(CN1C(=O)C2CCCCC2C1=O)OCC(=O)c1ccc(Cl)s1` (stereo not drawn), the “hERG current change (%, negative = inhibition) at 1uM” value came out at 5.71%.
For the compound `Cc1sc(NC(=O)c2ccccc2)c(C(c2ccccn2)N2CCN(CCO)CC2)c1C` (stereo not drawn), the “hERG current change (%, negative = inhibition) at 1uM” value was found to be 5.39%.
With `CCOC(=O)C(=O)NNc1ccccc1OC`, the “hERG current change (%, negative = inhibition) at 1uM” value turned out to be 15.9%.
Turning to `O=C(CN1CCC2(CC1)OCCO2)c1ccc2cc[nH]c2c1`, the “hERG current change (%, negative = inhibition) at 1uM” value is listed as -8.03%.
With `O=C(O)C[C@H]1c2cc(F)ccc2S(=O)(=O)N1C1CCCC1`, the “hERG current change (%, negative = inhibition) at 1uM” value turned out to be 19.7%.
Regarding `COc1ccc(C(=O)NNC(=O)C(=O)Nc2ccc(C)cc2)cc1`, the “hERG current change (%, negative = inhibition) at 1uM” value is reported as 3.44%.
As for `CC1(C)CC(OC(=O)c2ccco2)CC(C)(C)N1O.Cl`, the “hERG current change (%, negative = inhibition) at 1uM” value is recorded as 5.4%.
As for `O=C(/C=C/c1ccc(S(=O)(=O)N2CCOCC2)cc1)N(CCO)Cc1ccccc1`, the “hERG current change (%, negative = inhibition) at 1uM” value came to 9.69%.
Consider `Cc1ccnc(NC(=O)c2cnc(Cl)c(Cl)c2)c1`, for which the “hERG current change (%, negative = inhibition) at 1uM” value worked out at 11.2%.
The result for `COc1ccc(CNC(=O)Cn2nc(Cc3cccnc3)c3ccccc3c2=O)cc1` reads -7.98%; that for `O=C(C1CCCN(S(=O)(=O)c2ccccc2)C1)N1CCN(c2ccccc2)CC1` (stereo not drawn), -12.7%; that for `COc1cccc(-c2nn3c(-c4cccc(C)c4)nnc3s2)c1`, 14.4%.
With `Cn1cnnc1SCC(=O)NC1CCCN(Cc2ccccc2F)C1` (stereo not drawn), the “hERG current change (%, negative = inhibition) at 1uM” value stood at 12.3%.
The value for `Cc1cc(NS(=O)(=O)c2ccc(NC(=O)CSc3nc4ncccc4[nH]3)cc2)nc(C)n1` was 11.9%.
On to `Cc1c(Nc2cc(N3CCOCC3)c3nonc3c2[N+](=O)[O-])c(=O)n(-c2ccccc2)n1C`, for which the “hERG current change (%, negative = inhibition) at 1uM” value is on record as 23.4%.
`Cc1ccc(CNC(=O)C(OC(=O)c2ccco2)C(C)C)cc1` (stereo not drawn): the “hERG current change (%, negative = inhibition) at 1uM” value came to 10.6%.
In the case of `CC(=O)N1CCc2cc(S(=O)(=O)CCC(=O)NCCc3ccc(C)cc3)ccc21`, the “hERG current change (%, negative = inhibition) at 1uM” value is on record as 15.4%.
As to `O=C(N/N=C1\CC2CC=CC12)c1ccc(COc2ccccc2)cc1` (stereo not drawn), the “hERG current change (%, negative = inhibition) at 1uM” value is given as 8.26%.
As to `Cc1ccc(N)cc1-n1c(C)ccc1C`, the “hERG current change (%, negative = inhibition) at 1uM” value came to 8.1%.
As for `CC(=O)N1CCc2c(sc(NC(=O)CS(=O)(=O)c3ccc(F)cc3)c2C(N)=O)C1`, the “hERG current change (%, negative = inhibition) at 1uM” value was 20.3%.
For the compound `O=C(/C=C/c1ccccc1)OCCCCN=C1NS(=O)(=O)c2ccccc21`, the “hERG current change (%, negative = inhibition) at 1uM” value was found to be 10.1%.
With `CN(C)Cc1c(C(=O)N/N=C/C=C/c2ccccc2)nnn1-c1nonc1N`, the “hERG current change (%, negative = inhibition) at 1uM” value stood at 2.15%.
Regarding `Cc1ccc(C)c(N2C(=O)C3C4C=CC(CC4)C3C2=O)c1` (stereo not drawn), the “hERG current change (%, negative = inhibition) at 1uM” value was determined as 13.9%.
As to `COc1ccc(CNc2nc(C)cc(C)c2C#N)cc1`, the “hERG current change (%, negative = inhibition) at 1uM” value stood at 14.8%.
For `O=C(COc1ccccc1)NCC(=O)N/N=C/c1ccc(O)cc1O`, the “hERG current change (%, negative = inhibition) at 1uM” value was -0.632%.
As for `c1cncc(-c2nc(-c3cccs3)cs2)c1`, the “hERG current change (%, negative = inhibition) at 1uM” value is on record as 11.7%.
On to `O=C(c1ccco1)N1CCCSC1=Nc1ccccc1`, for which the “hERG current change (%, negative = inhibition) at 1uM” value turned out to be 18.4%.
The result for `COc1ccc(NC(=O)CSCc2cc(=O)n3cc(C)sc3n2)cc1` reads 14.1%.
With `CCN(CC)CCn1c(SCC(=O)Nc2cccc(OC)c2)nc2c(sc3ccccc32)c1=O`, the “hERG current change (%, negative = inhibition) at 1uM” value is listed as -33.1%.
As to `C=CCn1c(C)cc(C(=O)Cn2nc(C(=O)O)c3ccccc3c2=O)c1C`, the “hERG current change (%, negative = inhibition) at 1uM” value is reported as 5.09%.
Turning to `Cn1c(SCc2cccc([N+](=O)[O-])c2)nc2ccccc2c1=O`, the “hERG current change (%, negative = inhibition) at 1uM” value was found to be 9.43%.
For the compound `CC(C)N(C(=O)COC(=O)[C@H](C)NC(N)=O)c1ccccc1`, the “hERG current change (%, negative = inhibition) at 1uM” value came to 15.4%.
As to `CC(C)c1cc(NCCCN2CCOCC2)n2c(nc3ccccc32)c1C#N`, the “hERG current change (%, negative = inhibition) at 1uM” value is listed as -55.7%.
In the case of `O=C(CCCOc1ccc(Cl)cc1Cl)Nc1ccc(O)cc1C(=O)O`, the “hERG current change (%, negative = inhibition) at 1uM” value is 23.1%.
On to `CCN(CC)C(=O)CSc1nc2c(sc(=S)n2-c2ccccc2OC)c(=O)n1-c1ccccc1`, for which the “hERG current change (%, negative = inhibition) at 1uM” value was found to be 16.1%.
As for `CCNC(=O)COc1ccc(OCc2ccccc2)cc1`, the “hERG current change (%, negative = inhibition) at 1uM” value came to 4.71%.
In the case of `COc1ccccc1NC(=O)CCSc1nnc(-c2ccc(O)cc2)o1`, the “hERG current change (%, negative = inhibition) at 1uM” value is reported as 10.4%.
